# Experimental data from the supplement of paper PMC8728848.
# This is one part of the list.
# B1: CVN-E41G (protein)
# chain: MHHHHHHENLYFQSGNFSQACYNSAIQGSVLTSTCIRTNGGYNTSSIDLNSVIANVDGSLKWQGSNFIETCRNTQLAGSSELAAECKTRAQQFVSTKINLDDHIAAIDGTLKYE
# Assays:
# Assay in all cases: glycan array binding signal (z-score within array); higher = stronger binding
# Details in all cases: glycan notation: IUPAC condensed, linker removed; mutation: E41A
# [1] = target: Fuc(a1-2)[GalNAc(b1-3)]Gal
# Procedure, shortened: (§1)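 Negative Z-scores can be read as non-binding. The Z-score is calculated within each array and then averaged across arrays of one protein sequence at different concentrations or buffers and across linkers. Arrays, 3228 in all, were curated from the Consortium for Functional Glycomics database and kept only where the protein sequence was available.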
# Fuc(a1-3)GlcNAc = target: Fuc(a1-3)GlcNAc
# Procedure, shortened: as §1
# [2] = target: Fuc(a1-3)[Gal(b1-4)]Glc6S
# Procedure, shortened: as §1
# [3] = target: Fuc(a1-3)[Gal(b1-4)]GlcNAc
# Procedure, shortened: as §1
# [4] = target: Fuc(a1-3)[Gal(b1-4)]GlcNAc(b1-2)Man
# Procedure, shortened: as §1
# [5] = target: Fuc(a1-3)[Gal(b1-4)]GlcNAc(b1-2)Man(a1-3)[Fuc(a1-3)[Gal(b1-4)]GlcNAc(b1-2)Man(a1-6)]Man(b1-4)GlcNAc(b1-4)GlcNAc
# Procedure, shortened: as §1
# [6] = target: Fuc(a1-3)[Gal(b1-4)]GlcNAc(b1-2)Man(a1-3)[Fuc(a1-3)[Gal(b1-4)]GlcNAc(b1-2)Man(a1-6)]Man(b1-4)GlcNAc(b1-4)[Fuc(a1-6)]GlcNAc
# Procedure, shortened: as §1
# [7] = target: Fuc(a1-3)[Gal(b1-4)]GlcNAc(b1-3)Gal(b1-3)[Fuc(a1-4)]GlcNAc
# Procedure, shortened: as §1
# [8] = target: Fuc(a1-3)[Gal(b1-4)]GlcNAc(b1-3)Gal(b1-4)[Fuc(a1-3)]GlcNAc
# Procedure, shortened: as §1
# [9] = target: Fuc(a1-3)[Gal(b1-4)]GlcNAc(b1-3)Gal(b1-4)[Fuc(a1-3)]GlcNAc(b1-3)Gal(b1-4)[Fuc(a1-3)]GlcNAc
# Procedure, shortened: as §1
# [10] = target: Fuc(a1-3)[Gal(b1-4)]GlcNAc(b1-3)GalNAc
# Procedure, shortened: as §1
# [11] = target: Fuc(a1-3)[Gal(b1-4)]GlcNAc(b1-6)GalNAc
# Procedure, shortened: as §1
# [12] = target: Fuc(a1-3)[Gal(b1-4)]GlcNAc(b1-6)[Gal(b1-3)GlcNAc(b1-3)]Gal(b1-4)Glc
# Procedure, shortened: as §1
# [13] = target: Fuc(a1-3)[Gal(b1-4)]GlcNAc6S
# Procedure, shortened: as §1
# [14] = target: Fuc(a1-3)[Gal3S(b1-4)]Glc
# Procedure, shortened: as §1
# [15] = target: Fuc(a1-3)[Gal3S(b1-4)]GlcNAc
# Procedure, shortened: as §1
# [16] = target: Fuc(a1-3)[Gal3S(b1-4)]GlcNAc6S
# Procedure, shortened: as §1
# [17] = target: Fuc(a1-3)[GalNAc(b1-4)]GlcNAc
# Procedure, shortened: as §1
# [18] = target: Fuc(a1-3)[GalNAc(b1-4)]GlcNAc6S
# Procedure, shortened: as §1
# Fuc(a1-4)GlcNAc = target: Fuc(a1-4)GlcNAc
# Procedure, shortened: as §1
# Fuc(b1-3)GlcNAc = target: Fuc(b1-3)GlcNAc
# Procedure, shortened: as §1
# Gal(a1-2)Gal = target: Gal(a1-2)Gal
# Procedure, shortened: as §1
# Gal(a1-3)Gal = target: Gal(a1-3)Gal
# Procedure, shortened: as §1
# Gal(a1-3)Gal(b1-3)GlcNAc = target: Gal(a1-3)Gal(b1-3)GlcNAc
# Procedure, shortened: as §1
# [19] = target: Gal(a1-3)Gal(b1-3)GlcNAc(b1-2)Man
# Procedure, shortened: as §1
# [20] = target: Gal(a1-3)Gal(b1-3)GlcNAc(b1-2)Man(a1-3)[Gal(a1-3)Gal(b1-3)GlcNAc(b1-2)Man(a1-6)]Man(b1-4)GlcNAc(b1-4)GlcNAc
# Procedure, shortened: as §1
# [21] = target: Gal(a1-3)Gal(b1-3)GlcNAc(b1-3)GalNAc
# Procedure, shortened: as §1
# [22] = target: Gal(a1-3)Gal(b1-3)GlcNAc(b1-6)GalNAc
# Procedure, shortened: as §1
# [23] = target: Gal(a1-3)Gal(b1-3)[Fuc(a1-4)]GlcNAc(b1-2)Man(a1-3)[Gal(a1-3)Gal(b1-3)[Fuc(a1-4)]GlcNAc(b1-2)Man(a1-6)]Man(b1-4)GlcNAc(b1-4)GlcNAc
# Procedure, shortened: as §1
# Gal(a1-3)Gal(b1-4)Glc = target: Gal(a1-3)Gal(b1-4)Glc
# Procedure, shortened: as §1
# Gal(a1-3)Gal(b1-4)GlcNAc = target: Gal(a1-3)Gal(b1-4)GlcNAc
# Procedure, shortened: as §1
# [24] = target: Gal(a1-3)Gal(b1-4)GlcNAc(b1-2)Man
# Procedure, shortened: as §1
# [25] = target: Gal(a1-3)Gal(b1-4)GlcNAc(b1-2)Man(a1-3)[Gal(a1-3)Gal(b1-4)GlcNAc(b1-2)Man(a1-6)]Man(b1-4)GlcNAc(b1-4)GlcNAc
# Procedure, shortened: as §1
# [26] = target: Gal(a1-3)Gal(b1-4)GlcNAc(b1-3)GalNAc
# Procedure, shortened: as §1
# [27] = target: Gal(a1-3)Gal(b1-4)GlcNAc(b1-6)GalNAc
# Procedure, shortened: as §1
# [28] = target: Gal(a1-3)Gal(b1-4)[Fuc(a1-3)]GlcNAc
# Procedure, shortened: as §1
# [29] = target: Gal(a1-3)Gal(b1-4)[Fuc(a1-3)]GlcNAc(b1-2)Man(a1-3)[Gal(a1-3)Gal(b1-4)[Fuc(a1-3)]GlcNAc(b1-2)Man(a1-6)]Man(b1-4)GlcNAc(b1-4)GlcNAc
# Procedure, shortened: as §1
# Gal(a1-3)GalNAc = target: Gal(a1-3)GalNAc
# Procedure, shortened: as §1
# [30] = target: Gal(a1-3)[Gal(a1-4)]Gal(b1-4)GlcNAc
# Procedure, shortened: as §1
# [31] = target: Gal(a1-4)Gal(b1-3)GlcNAc(b1-2)Man(a1-3)[Gal(a1-4)Gal(b1-3)GlcNAc(b1-2)Man(a1-6)]Man(b1-4)GlcNAc(b1-4)GlcNAc
# Procedure, shortened: as §1
# Gal(a1-4)Gal(b1-4)Glc = target: Gal(a1-4)Gal(b1-4)Glc
# Procedure, shortened: as §1
# Gal(a1-4)Gal(b1-4)GlcNAc = target: Gal(a1-4)Gal(b1-4)GlcNAc
# Procedure, shortened: as §1
# [32] = target: Gal(a1-4)Gal(b1-4)GlcNAc(b1-2)Man(a1-3)[Gal(a1-4)Gal(b1-4)GlcNAc(b1-2)Man(a1-6)]Man(b1-4)GlcNAc(b1-4)GlcNAc
# Procedure, shortened: as §1
# [33] = target: Gal(a1-4)Gal(b1-4)GlcNAc(b1-3)Gal(b1-4)Glc
# Procedure, shortened: as §1
# Gal(a1-4)GlcNAc = target: Gal(a1-4)GlcNAc
# Procedure, shortened: as §1
binder,measurement,setting,value
B1,glycan array binding signal (z-score),[1],-0.18
same,glycan array binding signal (z-score),Fuc(a1-3)GlcNAc,-0.238
same,glycan array binding signal (z-score),[2],-0.218
same,glycan array binding signal (z-score),[3],-0.194
same,glycan array binding signal (z-score),[4],-0.143
same,glycan array binding signal (z-score),[5],-0.166
same,glycan array binding signal (z-score),[6],-0.133
same,glycan array binding signal (z-score),[7],-0.148
same,glycan array binding signal (z-score),[8],0.014
same,glycan array binding signal (z-score),[9],-0.209
same,glycan array binding signal (z-score),[10],-0.194
same,glycan array binding signal (z-score),[11],-0.161
same,glycan array binding signal (z-score),[12],-0.195
same,glycan array binding signal (z-score),[13],-0.008
same,glycan array binding signal (z-score),[14],-0.171
same,glycan array binding signal (z-score),[15],-0.207
same,glycan array binding signal (z-score),[16],-0.202
same,glycan array binding signal (z-score),[17],-0.204
same,glycan array binding signal (z-score),[18],-0.247
same,glycan array binding signal (z-score),Fuc(a1-4)GlcNAc,1.24
same,glycan array binding signal (z-score),Fuc(b1-3)GlcNAc,-0.126
same,glycan array binding signal (z-score),Gal(a1-2)Gal,-0.221
same,glycan array binding signal (z-score),Gal(a1-3)Gal,-0.227
same,glycan array binding signal (z-score),Gal(a1-3)Gal(b1-3)GlcNAc,-0.192
same,glycan array binding signal (z-score),[19],-0.163
same,glycan array binding signal (z-score),[20],-0.027
same,glycan array binding signal (z-score),[21],-0.18
same,glycan array binding signal (z-score),[22],-0.199
same,glycan array binding signal (z-score),[23],1.41
same,glycan array binding signal (z-score),Gal(a1-3)Gal(b1-4)Glc,-0.222
same,glycan array binding signal (z-score),Gal(a1-3)Gal(b1-4)GlcNAc,-0.208
same,glycan array binding signal (z-score),[24],-0.123
same,glycan array binding signal (z-score),[25],-0.229
same,glycan array binding signal (z-score),[26],-0.225
same,glycan array binding signal (z-score),[27],-0.191
same,glycan array binding signal (z-score),[28],-0.243
same,glycan array binding signal (z-score),[29],-0.085
same,glycan array binding signal (z-score),Gal(a1-3)GalNAc,-0.209
same,glycan array binding signal (z-score),[30],-0.221
same,glycan array binding signal (z-score),[31],0.159
same,glycan array binding signal (z-score),Gal(a1-4)Gal(b1-4)Glc,-0.176
same,glycan array binding signal (z-score),Gal(a1-4)Gal(b1-4)GlcNAc,-0.135
same,glycan array binding signal (z-score),[32],0.1
same,glycan array binding signal (z-score),[33],-0.177
same,glycan array binding signal (z-score),Gal(a1-4)GlcNAc,-0.225
